Hit rate of the full screen: of about 44,000 compounds, about 340 (0.77%) were called active. About 5% were inconclusive and are not listed. Calls come from the whole dose curve; as a rule, active = well fitted inhibition curve with a large enough effect; inconclusive = small, poorly fitted or top-dose-only effect; inactive = flat fitted curve, though single readings scatter. Some of the results follow.
assay: Acumen qHTS Assay for Inhibitors of the mTORC1 Signaling Pathway in MEF (Tsc2-/-, p53-/-) Cells: Sytravon; details: phospho-rpS6 immunofluorescence/PI, 24 h; series mostly up to 38.3 µM; activity change, negative = inhibition: at the top concentration;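 note: plate controls were DMSO for no effect and rapamycin for full effect; nearly all actives have a fitted effect of over 50% in size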
In short: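 Tsc2-/-, p53-/- mouse embryonic fibroblasts (empty-vector line) exposed to compound 24 hrs at 37 C, fixed, immunostained for phospho-rpS6 and counterstained with propidium iodide. Acumen laser scanning gives % positive cells from Alexa 488/PI ratio, thresholded using 7.5 nM rapamycin; PI count gives viability.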

Activity change, negative = inhibition, inactive:
Cn1nnnc1SCCNCc1ccc(OCc2ccccc2)cc1 -2.29%
COC(=O)c1sccc1S(=O)(=O)N(CC(=O)NCc1ccccc1)c1ccc(C)c(C)c1 -4.87%
Cc1cccc(NC(=O)CN2C(=O)COc3ccc(S(=O)(=O)N4CCC(C)CC4)cc32)c1C 0.254%
CCN(CC)CCCNC(=O)c1nn(-c2ccc(OC)c(Cl)c2)c(=O)c2c1c1ccccc1n2C 0.618%
CCOc1ccc(NC(=O)CCS(=O)(=O)c2ccc(Br)s2)cc1 -4.97%
Cc1ccc(S(=O)(=O)N(CC(=O)N2CCc3ccccc3C2)c2ccc(C)c(C)c2)cc1 9.27%
Cc1ccc(CNC(=O)Cn2c(=O)n(-c3ccc(C)c(F)c3)c(=O)c3sc4ccccc4c32)cc1 -6.02%
O=C(Nc1noc2ccccc12)c1c(F)cccc1F -1.51%
Cc1cccc(-c2nc(CCNC(=O)c3ccccc3Br)cs2)c1 -16.3%
CCOC(=O)c1ccccc1NC(=O)N1CCCN(S(=O)(=O)c2ccc3c(ccn3CC)c2)CC1 -16.5%
CCc1ccc(CNC(=O)C2CCCN(c3nn4cc(-c5ccc(F)cc5)nc4s3)C2)cc1 (centres undefined) -3.67%
O=C(Nc1cc(F)ccc1F)c1ccc2c(c1)nnn2C1CCCC1 1.59%
CCOc1ccc(-c2nc3c(C#N)c[nH]n3c2NC2CCCCC2)cc1 1.54%
CCOC(=O)C1CCN(C(=O)C2CCN(c3nnc(C)c4c(C)n(-c5ccccc5)nc34)CC2)CC1 -5.34%
Cc1nn(CC(=O)NCc2ccccc2Cl)c(=O)c2cccn12 -4.76%
CCCC(=O)Nc1cc(C(=O)NCc2ccc(OC)cc2)ccc1S(=O)(=O)c1ccc(Cl)cc1 -9.43%
COc1ccc(-c2cc(OC(=O)c3ccc(F)cc3)c3c(C)oc(C)c3c(=O)c2)cc1OC -0.842%
Cc1ccc(Cc2c(C)nn(-c3nc(C)c(C(=O)N4CCCCC4C)s3)c2C)cc1 (centres undefined) -4.59%
COc1ccc(-c2noc(CSc3nnc(-c4ccccc4)n3-c3ccc(F)cc3)n2)c(OC)c1 -0.927%
COc1ccc(NC(=O)C2CCCN(S(=O)(=O)c3c(C)n[nH]c3C)C2)cc1OC (centres undefined) -7.75%
Cc1cccc(NC(=O)CN2c3ccccc3S(=O)(=O)c3ccccc32)c1C -13.3%
CCc1nn(CC(=O)NCc2ccc(OC)cc2OC)c(=O)c2cc3c(OC)cccc3n12 0.435%
CCC(=O)N1CCc2cc(S(=O)(=O)NC(C(=O)NCCc3ccc(Cl)cc3)C(C)C)ccc21 (centres undefined) 0.0834%
Cc1ccc(C)c(N2CCN(c3nccn4nc(-c5ccc(Br)cc5)cc34)CC2)c1 13.4%
Cc1ccc(Cl)cc1NC(=O)C(NS(=O)(=O)c1cccc2nsnc12)c1ccccc1 (centres undefined) 5.08%
COc1ccc(NC(=O)C2CCCN(S(=O)(=O)c3ccc(Cl)cc3)C2)cc1 (centres undefined) -0.835%
O=C(COCc1cc(-c2cccs2)on1)NCc1ccccc1Cl -3.06%
Cc1nc2nc(NC(=O)c3ccc(F)cc3)[nH]n2c(=O)c1Cc1ccccc1 -7.53%
COc1cc(C2c3c(oc4ccccc4c3=O)C(=O)N2c2nc(C)c(C)s2)ccc1O (centres undefined) 11%
O=C(NCc1ccccc1F)C1CCN(Cc2cc3ccccc3n2Cc2cccc(Cl)c2)CC1 -12.8%
Cc1cccn2c(=O)c(/C=C(\C#N)c3nc4ccccc4s3)c(Oc3ccc(Br)cc3)nc12 -7.69%
Cn1c(=O)oc2cc(S(=O)(=O)CCC(=O)NCCc3ccccc3)ccc21 -1.47%
Cc1ccccc1NC(=O)Nc1ccc2nc(N3CCN(C)CC3)cc(C)c2c1 -3.03%
CC(=O)c1cc(-c2ccc(F)cc2)n(CC(=O)NC(C)c2ccccc2)c1C (centres undefined) -0.207%
COc1cccc(C(=O)NC(=O)Nc2ccc(-n3nc(C(F)(F)F)cc3C(F)(F)F)cc2)c1 -14.1%
COc1ccc(CNCc2ccc3c(c2)n(C)c(=O)n3C)cc1 -9.08%
CC(=O)c1ccc(NC(=O)C2=CC(c3cccs3)=NS(=O)(=O)N2C)cc1 -5.47%
COc1cc(Nc2nc(SCc3cccc(Cl)c3)nc3ccccc23)cc(OC)c1 1.83%
Cc1nc2c(c(C)nn2-c2ccccc2)c(C)c1CCC(=O)Nc1ccc(F)cc1 0.985%
CCN(c1ccccc1)S(=O)(=O)c1ccc(NC(=O)c2cc(=O)c3ccc(C)c(C)c3o2)cc1 -0.137%
Cc1ccc2c(CC(=O)Nc3c(C(=O)c4ccc(F)cc4)oc4ccccc34)coc2c1 3.24%
CCC(=O)OCc1cnc(C)c2oc(=O)c(C(=O)Nc3ccc(CC)cc3)cc12 5.3%
COc1ccc(-c2nc3c(c(SCc4cc(C)ccc4C)n2)Cc2c(CO)cnc(C)c2O3)cc1 2.56%
COc1ccc(N2CCN(C(=O)c3nn(C)c4c3CS(=O)(=O)c3ccccc3-4)CC2)cc1 6.69%
COc1ccc(CCNC(=O)CS(=O)Cc2nc(-c3ccc(C)cc3)oc2C)cc1OC (centres undefined) 0.857%
O=C(CCSCc1ccc(Cl)cc1)N1CCN(c2ccccc2F)CC1 -14.9%
COc1ccccc1Nc1nn2c(=O)c3ccc(C(=O)Nc4ccc(F)cc4)cc3nc2s1 -18.5%
NC(=O)c1cc(S(=O)(=O)NCc2ccc(Br)cc2)cs1 -3.39%
CCOc1ccc2oc(=O)cc(CN3CCN(C(=O)c4cccc(F)c4)CC3)c2c1 1.61%
CCCN(CCC)CCNC(=O)Cn1ncc2c([nH]c3ccc(C)cc32)c1=O 0.811%
CCOC(=O)c1ccc(NC(=O)CCc2c(C)n(CC)c3cc(-c4ccccc4OC)nn3c2=O)cc1 -16.9%
CCOC(=O)c1[nH]c(C)c(CCC(=O)NCc2ccc(C)cc2)c1C 6.08%
CCc1cccc(-n2c(=O)c3cccnc3n2CC(=O)NCc2ccccc2Cl)c1 5.96%
COc1ccc(N2CCN(C(=O)c3ccc(NC(=O)c4nsc5ccccc45)cc3)CC2)cc1 1.28%
O=C(/C=C\c1ccc2c(c1)OCO2)NC1CC(=O)N(c2ccc(F)cc2)C1 (centres undefined) -0.155%
CCOCCCNC(=O)c1cc2c(=O)n3ccccc3nc2s1 -16.3%
CC(C)(C)c1ccc(C(=O)Nc2cc(-c3ccccc3)nn2-c2ccccc2)cc1 5.72%
Cc1ccc(C)c(N2CCN(C(=O)c3cc4cc5ccc(C)cc5nc4s3)CC2)c1 1.71%
Cc1ccc(CNc2nc3c(S(=O)(=O)c4ccc(C)c(C)c4)nnn3c3ccc(Cl)cc23)cc1 0.117%
Cc1ccc(CSc2oc(-c3ccco3)nc2S(=O)(=O)c2ccc(Br)cc2)cc1 -14%
CC1CCN(C(=O)CSc2nc3c([nH]c4ccccc43)c(=O)n2-c2ccccc2)CC1 5.68%
O=C(CN1CCN(c2ccc(Cl)cc2)CC1)Nc1ccc(Cl)c(C(F)(F)F)c1 0%
Cc1ccc(CNC(=O)CCn2ccc3cc(S(=O)(=O)N4CCCC4)ccc32)cc1 -9.05%
CCOc1ccc(-n2c(=O)c3c4c(sc3n(Cc3cc(=O)n5cc(Cl)ccc5n3)c2=O)CCC4)cc1 0.21%
CCc1ccc(NC(=O)Cn2c(=O)n(Cc3nc(C)no3)c(=O)c3cc4c(cc32)OCO4)cc1 1.11%
COc1ccccc1NC(=O)CSc1nnc(-c2nonc2NC(C)=O)n1-c1ccccc1 -11.8%
Cc1ccc(CN2CCC(CNC(=O)c3cnn(-c4ccccc4)c3C3CCN(C(=O)OC(C)(C)C)CC3)CC2)cc1 1.35%
Cc1ccc2c(c1)C(=O)C(=O)N2Cc1ccc(OCCC(C)C)cc1 -12.8%
COc1ccc(NC(=O)c2cc(C(C)=O)n3ccccc23)cc1 7.36%
COc1ccc(NC(=O)c2oc3ccc(S(=O)(=O)N4CCCCC4)cc3c2C)cc1Cl 11.5%
Cc1ccc2nc(NC(=O)c3nc(SCc4ccccc4F)ncc3Cl)sc2c1 0.759%
CSc1ncc(Cl)c(C(=O)Nc2cc(C(F)(F)F)ccc2Cl)n1 -6.08%
COc1cc2c(=O)n(Cc3ccco3)c(=O)n(CC(=O)Nc3ccc(F)cc3)c2cc1OC 2.9%
CCOc1cc2[nH]c(=O)n(Cc3ccc(C(=O)N4CCN(c5ccccc5)CC4)cc3)c(=O)c2cc1OCC 0.123%
Cc1nc(-c2ccc(Cl)cc2)sc1CCNC(=O)C(=O)Nc1ccc2c(c1)OCCO2 1.01%
O=C(CSc1nc(=O)n(Cc2cccnc2)c2c1CCC2)Nc1cccc(Cl)c1 -4.16%
O=C(O)c1ccc(NCc2nc3ccccc3n2CCOc2ccccc2Cl)cc1 1.15%
CCOC(=O)N1CCC(NC(=O)c2cnn(-c3ccc(F)cc3)c2-n2cccc2)CC1 1.73%
COc1ccc(N(C)C(=O)c2nn(-c3ccc(C)cc3)c(=O)n(C)c2=O)c(OC)c1 -2.07%
Cc1cc(C)cc(NC(=O)N2CCC(C(N)=O)(N3CCCCC3)CC2)c1 0.338%
COc1ccc(CNC(=O)CC(C)n2nc(C)cc2C)cc1 (centres undefined) 0%
COc1ccc(N2CC(NC(=O)C(=O)c3c[nH]c4ccccc34)CC2=O)cc1 (centres undefined) 0.257%
Cc1ccc(-c2nn(-c3ccc(F)cc3F)c3c2cnc2ccc(F)cc23)cc1 0%
O=C(CSc1ncc2c(n1)-c1cc(Cl)ccc1N(Cc1ccccc1)S2(=O)=O)Nc1ccc(F)cc1F 11.7%
CC(C)Oc1ccc(C(=O)N2CCN(c3nc4c(F)cc(F)cc4s3)CC2)cc1 -1.4%
O=c1c(N2CCN(c3ccccc3)CC2)csc2ccc(Cl)cc12 0.178%
O=C(CCSCc1cccc(Cl)c1)NCc1ccccc1Cl 3.12%
CCCCn1cc(S(=O)(=O)c2ccccc2)c(=O)c2cc(F)c(N3CCN(CCC)CC3)cc21 -2.29%
CC1CCCN(c2ncnc3c2cnn3-c2ccc(F)cc2)C1 (centres undefined) 10.6%
CCN1c2ccccc2-n2cccc2C12CCN(C(=O)Nc1ccccc1Br)CC2 -7.72%
CCOCCn1ccc2c(OCC(=O)NCc3ccc(F)cc3)cccc2c1=O 1.03%
COc1ccc(C2CC(=O)N(Cc3ccccc3C)c3c2c(C)nn3-c2nc(C)cc(C)n2)c(OC)c1 (centres undefined) 0.145%
COc1ccc(-c2nc3c4ccccc4n(CC(=O)Nc4ccc(C(C)C)cc4)c(=O)n3n2)cc1 0.562%
COc1ccc(NC(=O)CSC2=Nc3ccccc3C3=NC(CC(=O)NCc4ccccc4OC)C(=O)N23)cc1Cl (centres undefined) -4.34%

From PubChem BioAssay AID493208 (National Center for Advancing Translational Sciences (NCATS), 2011)
